Experimental data: the supplement of paper PMC3334620
Over roughly 33,000 sequences, “E-score (-0.5 to 0.5)” has its median near -0.035; the highest 2% begin near 0.35. This is one part of the list.

The sequences below were run against T1, Pdr3 (UniProt P33200) (assay: PBM E-score (8-mer binding enrichment) (E-score (-0.5 to 0.5)); higher = stronger / more preferred TF binding; most listed sequences are background and not binding sites). Conditions: protein concentration: 200 nM; construct: GST-full length.
T1 sequence: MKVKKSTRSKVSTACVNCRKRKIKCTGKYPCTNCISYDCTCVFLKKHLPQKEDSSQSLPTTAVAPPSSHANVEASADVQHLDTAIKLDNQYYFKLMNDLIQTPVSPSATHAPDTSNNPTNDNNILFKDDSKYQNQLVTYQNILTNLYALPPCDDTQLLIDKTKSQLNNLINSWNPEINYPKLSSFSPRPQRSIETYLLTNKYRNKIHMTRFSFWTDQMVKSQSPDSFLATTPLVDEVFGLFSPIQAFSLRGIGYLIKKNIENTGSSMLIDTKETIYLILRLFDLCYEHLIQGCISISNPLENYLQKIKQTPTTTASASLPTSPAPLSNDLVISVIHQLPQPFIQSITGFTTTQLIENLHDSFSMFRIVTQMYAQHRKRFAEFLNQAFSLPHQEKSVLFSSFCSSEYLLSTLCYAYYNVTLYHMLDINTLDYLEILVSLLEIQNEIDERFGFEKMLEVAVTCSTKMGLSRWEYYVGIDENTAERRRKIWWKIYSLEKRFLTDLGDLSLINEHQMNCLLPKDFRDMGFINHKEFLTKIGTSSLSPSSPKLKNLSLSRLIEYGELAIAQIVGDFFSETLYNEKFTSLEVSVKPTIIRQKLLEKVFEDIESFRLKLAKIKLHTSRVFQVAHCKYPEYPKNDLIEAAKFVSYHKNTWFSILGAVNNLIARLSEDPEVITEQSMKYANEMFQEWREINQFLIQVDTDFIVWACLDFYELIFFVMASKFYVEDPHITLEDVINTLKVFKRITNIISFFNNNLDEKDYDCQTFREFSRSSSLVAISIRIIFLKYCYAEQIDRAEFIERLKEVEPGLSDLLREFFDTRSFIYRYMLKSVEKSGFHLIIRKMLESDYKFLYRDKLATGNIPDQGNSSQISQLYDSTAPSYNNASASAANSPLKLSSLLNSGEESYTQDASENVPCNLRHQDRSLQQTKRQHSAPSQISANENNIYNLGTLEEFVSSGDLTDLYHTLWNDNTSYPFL
Protocol: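 Universal 'all 10-mer' protein binding microarrays (Agilent AMADID 015681) probed with GST-tagged S. cerevisiae TFs (full-length or DBD) made by in vitro transcription/translation (PURExpress), about 100-200 nM. Bound TF was detected with fluorescent anti-GST. Each ungapped 8-mer (which stands for itself and its reverse complement) is scored by the PBM enrichment score (E-score), a modified Wilcoxon-Mann-Whitney statistic from -0.5 to +0.5, computed with the Universal PBM Analysis Suite. Scale: above 0.35 generally sequence-specific binding.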

Sequence	PBM E-score
CGGCCACA	0.199
GCATGCTA	-0.115
ACGACCCA	-0.0346
ATGTATAC	0.0336
CATTGATC	0.13
GAACTTTA	-0.0456
CGGGCCTA	0.0856
GACGAGCC	-0.031
ACCCGGAT	0.31
ACACGGCG	0.152
CGGACCAG	0.278
CAAAGCGC	0.0784
ATGAATGG	0.231
CGCAATTC	0.223
ACGCGTAA	-0.159
AGGCTCAA	-0.222
AACCTCAT	-0.0356
GCAACAGA	-0.0927
ATCCCGCC	0.322
ACCACAGG	-0.238
GGCTATAA	-0.0703
AGATAGAT	-0.22
ATCTCACG	0.0453
ATCCTTAG	-0.138
CTGTAAAC	-0.251

Sequence	PBM E-score
TAGAGGGA	-0.239
CGTATACC	-0.159
CTTCCCTC	-0.0815
ACCTCCCT	-0.106
ACGCCACA	-0.0473
CGGCATCC	0.266
AAGCAGGT	-0.0364
ACCGGAGC	0.356
CGAATACG	0.0296
CAACCTCG	0.0325
GCCTGACA	-0.08
CTATCTAC	-0.109
TCTGTGCA	-0.0818
TACCAACA	-0.164
TGGAGAAA	-0.126
CCAATCTA	-0.0105
AATCCCGC	0.333
AGTAAGTC	-0.11
AGTCGTCA	-0.339
GGCAAAAA	0.215
AAAACGCG	0.161
ACATCTCT	-0.166
AACATTTG	-0.13
CTAGCTTC	0.0676
CGCCAGTA	0.00965

Sequence	PBM E-score
GATCGTAC	0.121
AAGGTCCG	0.327
CAGTTTCC	0.253
GATTCGCC	-0.0193
TGGCCAAA	-0.152
ACCACCTC	0.11
CCCTACAA	-0.164
GGAGGGTA	0.0832
CGTCGAAA	0.0208
GCTTCAAC	-0.0825
GGCCGAAC	0.068
CCCTCCGG	0.265
GCATGTCA	-0.0508
CAACCGTG	-0.0744
CCCACATC	-0.167
ACGAGTAC	-0.0719
AGAGGAGG	-0.337
ATACGCCA	-0.0314
CACGCCCA	0.0821
AAGGAATA	-0.0227
CGGCGGGA	0.312
CCAAAGAG	-0.0866
TCGTATAA	0.0828
AAATAACC	-0.0781
AATTTTGG	0.0167

Sequence	PBM E-score
GAGGTGAA	-0.0763
GAGAGCAA	0.0278
AGCTTTAA	-0.0198
GAATCGTA	-0.043
AGATTACA	-0.107
GCTAAACC	-0.128
CCTCAGCC	-0.181
GGTCAACC	0.0182
GAGCCGCC	0.153
CTGTCCCA	-0.156
CTCGTCAA	-0.18
AGTTATAC	0.0638
ACCGAGAC	0.0101
ACTAAGAC	-0.224
GTTCGCGA	0.148
CAGGACGG	-0.0667
ACAGTGCT	0.0599
ATCTCAAT	-0.158
ACGCTAAT	0.073
TAACCTTA	-0.199
AATATACA	0.0145
CGTGTTCA	-0.0434
GGTGGTGA	-0.032
ATTTAAAC	0.0115
AGTCACTG	-0.0973

Sequence	PBM E-score
CTCCTTAA	-0.134
GGCTGGAC	-0.109
ACGAACTC	0.0779
ATATGTCG	0.0248
CTCTTGCA	-0.186
TAATGGCA	-0.0322
ATCTCACC	0.159
ACCTTGAC	-0.0123
ACATCCTC	-0.0656
ACCATGAT	-0.178
CTAGTCAA	-0.196
CGGCCAAG	0.088
GGGTAGAC	-0.106
TTGGCAAA	-0.121
GCTCAAGA	-0.178
CTGTATTC	0.124
GGTGTGTA	-0.238
CCGAATCC	0.336
CCGATGAG	0.0296
CCATTGCC	0.035
CGCTCGCC	0.129
CTCCGCGA	0.258
AGTCTCCA	-0.222
ACTGGATC	0.0322
ATACTGCA	0.188

Sequence	PBM E-score
CGCCACTC	0.114
CAGATCAG	-0.00717
CGACTATA	-0.153
CTATCCAC	0.0063
AGCCCTAA	-0.0383
ACACACGA	-0.0441
AGAGAAAT	0.00629
AAACGTGG	-0.217
GAGGTGCA	0.0693
AAAGCGCC	0.0235
CGTTCCTA	-0.0878
AAATGAAT	-0.00342
AGATAATA	0.00528
ATTACTTC	-0.139
CCTTTGGA	-0.259
CACTCACC	0.0163
AAGGCTCT	-0.173
AGTCCCCC	-0.246
AGAAGAAT	-0.015
ATGTCCCC	0.00109
AGTCTCGG	0.101
ATGGCATA	-0.119
AGCCCATG	-0.0226
CTTATATC	0.0726
AGGATAGA	-0.225

Sequence	PBM E-score
AGATCCCC	0.015
CCTAATCA	0.0425
CTCTTAAA	-0.111
GACATGCA	-0.163
ATGGGTCG	0.0962
GTCGCATA	-0.0109
CGACAGCA	0.0259
GCATGTGA	-0.013
AGATACAG	-0.033
GATCTCGA	0.173
ACTGGCAG	0.055
AGGCCTTC	-0.132
CGACCTTC	0.14
ACCTGAGT	-0.0183
ACTTTAAG	0.0833
CCTTTTGC	-0.126
ACGCCTGC	-0.201
GCATCCGC	0.277
AGGATCCC	0.152
GCTCCTAA	-0.188
ACACGCAG	-0.196
GGGATAAA	0.202
